86 sequences from the supplement of paper PMC4166925 can be followed below.

± gives the standard deviation of the averaged measurements. The full ranking holds about 33,000 sequences; the median of “E-score (dimensionless, -0.5 to 0.5)” is about -0.049, and the highest 2% start at about 0.37. Some of the results follow.
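Note: 200 nM protein in PBS on universal arrays averaged over duplicate arrays.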

The test deals with T1, PmTbr T-box DNA-binding domain (GST fusion).
T1 sequence: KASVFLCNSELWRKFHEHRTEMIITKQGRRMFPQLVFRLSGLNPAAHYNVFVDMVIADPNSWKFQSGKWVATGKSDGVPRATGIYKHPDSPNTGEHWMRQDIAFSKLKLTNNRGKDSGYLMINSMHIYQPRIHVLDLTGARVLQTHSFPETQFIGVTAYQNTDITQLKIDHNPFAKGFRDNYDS
Put plainly: PBM E-score of 8-mer (E-score (dimensionless, -0.5 to 0.5)); Tbr is Tbrain of the sea star Patiria miniata (Pm) or the sea urchin Strongylocentrotus purpuratus (Sp); higher = stronger binding preference; most listed sequences are background and not binding sites. As to conditions: the construct has about 5 more residues each side. The method, then: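 Universal protein-binding microarray (Agilent AMADID 016060, 60-bp probes with a 35-bp variable region) incubated with 200 nM GST-fused Patiria miniata Tbr T-box DNA-binding domain (residues 272-466) in PBS pH 7.5. Scored for every ungapped 8-mer (given with its reverse complement) by the Universal PBM Analysis Suite as E-score (modified Wilcoxon-Mann-Whitney enrichment, range -0.5 to 0.5; >0.45 counts as bound) and Z-score of median probe intensity. Two replicate arrays (datasets 1 and 2).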
Consider CGGGGAAC, for which the “PBM E-score of 8-mer” value was -0.25305 ± 7.1e-05.

As for CCGTACAG, the “PBM E-score of 8-mer” value is -0.29 ± 0.039.

As for GTTACTAA, the “PBM E-score of 8-mer” value is -0.0205 ± 0.024.

On to CTGTTCGC, for which the “PBM E-score of 8-mer” value amounted to 0.308 ± 0.019.

In the case of CTGGGGTA, the “PBM E-score of 8-mer” value was -0.225 ± 0.061.

With GCCCACCC, the “PBM E-score of 8-mer” value was -0.139 ± 0.014.

With ATACCGTA, the “PBM E-score of 8-mer” value worked out at 0.0236 ± 0.061.

On to GTCGGGTA, for which the “PBM E-score of 8-mer” value is 0.104 ± 0.031.

As to GGGTCTAA, the “PBM E-score of 8-mer” value was determined as 0.0575 ± 0.065.

Consider CTTAGATA, for which the “PBM E-score of 8-mer” value was -0.182 ± 0.059.

Turning to AATCGCCT, the “PBM E-score of 8-mer” value turned out to be 0.00429 ± 0.12.

Consider ATGGCCAT, for which the “PBM E-score of 8-mer” value was -0.1523 ± 0.00071.

With GTTGTGAA, the “PBM E-score of 8-mer” value is 0.366 ± 0.038.

Take ACGGGAAT: the “PBM E-score of 8-mer” value is -0.0525 ± 0.023.

CTATTGTC: the “PBM E-score of 8-mer” value came out at 0.0205 ± 0.07.

On to TCCTCTCA, for which the “PBM E-score of 8-mer” value was determined as 0.118 ± 0.008.

Take GATGGAAA: the “PBM E-score of 8-mer” value came to 0.0118 ± 0.041.

For the sequence ACCAAGTA, the “PBM E-score of 8-mer” value is 0.0125 ± 0.031.

Regarding ACGGCAGG, the “PBM E-score of 8-mer” value came to 0.193 ± 0.061.

Regarding ATTTACTA, the “PBM E-score of 8-mer” value was -0.2083 ± 0.00086.

In the case of GTATATGA, the “PBM E-score of 8-mer” value is -0.042 ± 0.022.

With GGGTTCAA, the “PBM E-score of 8-mer” value was -0.184 ± 0.037.

Take ATTTTTCG: the “PBM E-score of 8-mer” value was 0.151 ± 0.05.

For the sequence CCGGATAA, the “PBM E-score of 8-mer” value was -0.134 ± 0.034.

For GTTGGAGA, the “PBM E-score of 8-mer” value is -0.153 ± 0.0022.

In the case of CTCTCCCA, the “PBM E-score of 8-mer” value is 0.112 ± 0.042.

For the sequence ACGATAGG, the “PBM E-score of 8-mer” value was -0.185 ± 0.12.

Consider AGAGTAAC, for which the “PBM E-score of 8-mer” value is -0.0608 ± 0.011.

Regarding GACGTTAA, the “PBM E-score of 8-mer” value was -0.151 ± 0.047.

TCAACTAA: the “PBM E-score of 8-mer” value was -0.029 ± 0.11.

With GTCTGGCA, the “PBM E-score of 8-mer” value amounted to 0.0395 ± 0.072.

For AACTTAGG, the “PBM E-score of 8-mer” value is -0.142 ± 0.0089.

In the case of GGGTGCGA, the “PBM E-score of 8-mer” value was 0.4765 ± 0.0031.

Take TGTTCAAA: the “PBM E-score of 8-mer” value is -0.0799 ± 0.071.

For CCGAAAAA, the “PBM E-score of 8-mer” value was -0.2382 ± 0.00024.

Consider CCATACAA, for which the “PBM E-score of 8-mer” value is -0.0606 ± 0.041.

Consider AAAAATCA, for which the “PBM E-score of 8-mer” value came out at 0.0406 ± 0.14.

With GTTCAGGA, the “PBM E-score of 8-mer” value stood at 0.0662 ± 0.068.

On to GAGACGAC, for which the “PBM E-score of 8-mer” value is -0.104 ± 0.03.

For the sequence CAAATTAC, the “PBM E-score of 8-mer” value was 0.0272 ± 0.12.

As for CTTAGGAA, the “PBM E-score of 8-mer” value is -0.24 ± 0.011.

Regarding CACTTTCC, the “PBM E-score of 8-mer” value stood at 0.304 ± 0.011.

In the case of ACCCGAAG, the “PBM E-score of 8-mer” value turned out to be 0.0968 ± 0.022.

Consider GCGTTAGC, for which the “PBM E-score of 8-mer” value was 0.343 ± 0.013.

For the sequence ACCGTAGT, the “PBM E-score of 8-mer” value is -0.0513 ± 0.01.

Turning to TGTGTAAA, the “PBM E-score of 8-mer” value is 0.227 ± 0.022.

Turning to ATGAATTC, the “PBM E-score of 8-mer” value is 0.0097 ± 0.0095.

Take AAACCCAA: the “PBM E-score of 8-mer” value is -0.201 ± 0.03.

Turning to CAATCACA, the “PBM E-score of 8-mer” value amounted to 0.243 ± 0.019.

Turning to AACAATCA, the “PBM E-score of 8-mer” value was found to be 0.0205 ± 0.068.

As for ATCATAGG, the “PBM E-score of 8-mer” value is -0.1514 ± 0.001.

As for AAAATCAT, the “PBM E-score of 8-mer” value was -0.0916 ± 0.1.

As for ATGTCCTG, the “PBM E-score of 8-mer” value was -0.103 ± 0.018.

Consider AATGGAGT, for which the “PBM E-score of 8-mer” value was -0.152 ± 0.042.

As for ACCTAGCT, the “PBM E-score of 8-mer” value is -0.0903 ± 0.033.

Regarding AGGTCTTC, the “PBM E-score of 8-mer” value is -0.185 ± 0.0046.

As to GATCTTTA, the “PBM E-score of 8-mer” value was -0.108 ± 0.044.

In the case of ATTGGATG, the “PBM E-score of 8-mer” value was -0.0439 ± 0.0095.

Take GACCACCA: the “PBM E-score of 8-mer” value is -0.142 ± 0.031.

On to AATTTCTA, for which the “PBM E-score of 8-mer” value is -0.071 ± 0.1.

As for GTGCCCCA, the “PBM E-score of 8-mer” value is -0.154 ± 0.084.

For the sequence AAACCCGG, the “PBM E-score of 8-mer” value is -0.207 ± 0.0074.

Consider TCAGACAA, for which the “PBM E-score of 8-mer” value was -0.258 ± 0.034.

For the sequence GGGCGATA, the “PBM E-score of 8-mer” value worked out at 0.167 ± 0.011.

Consider CAGATAAA, for which the “PBM E-score of 8-mer” value is -0.0747 ± 0.024.

With CGGTCTGA, the “PBM E-score of 8-mer” value is -0.158 ± 0.046.

As for AATATCGG, the “PBM E-score of 8-mer” value is -0.0365 ± 0.031.

Regarding GTTGCCAA, the “PBM E-score of 8-mer” value was 0.171 ± 0.056.

AATCGCAG: the “PBM E-score of 8-mer” value was 0.0445 ± 0.062.

Turning to AGAAATGC, the “PBM E-score of 8-mer” value is -0.0326 ± 0.03.

With ACTATTAA, the “PBM E-score of 8-mer” value was -0.0176 ± 0.062.

As to ATTCTGGA, the “PBM E-score of 8-mer” value is -0.285 ± 0.012.

CGAGGAAC: the “PBM E-score of 8-mer” value is -0.0145 ± 0.025.

Consider AAGCAGCA, for which the “PBM E-score of 8-mer” value is -0.0765 ± 0.018.

For ATTAGTCA, the “PBM E-score of 8-mer” value is -0.056 ± 0.03.

GGCCATTA: the “PBM E-score of 8-mer” value was -0.224 ± 0.046.

As for CAGTTGGC, the “PBM E-score of 8-mer” value turned out to be 0.0254 ± 0.023.

For ACGCGATA, the “PBM E-score of 8-mer” value turned out to be 0.294 ± 0.014.

Regarding CACATACG, the “PBM E-score of 8-mer” value was 0.237 ± 0.022.

As for CGTGTACC, the “PBM E-score of 8-mer” value is -0.204 ± 0.043.

Consider AGGCTAAA, for which the “PBM E-score of 8-mer” value is -0.233 ± 0.034.

CACCGTTA: the “PBM E-score of 8-mer” value worked out at 0.309 ± 0.019.

On to AAGGATCC, for which the “PBM E-score of 8-mer” value was -0.293 ± 0.026.

Turning to AATGATTA, the “PBM E-score of 8-mer” value is -0.0264 ± 0.018.

In the case of GGCGACAC, the “PBM E-score of 8-mer” value came out at 0.402 ± 0.019.

Turning to CGTCTCGA, the “PBM E-score of 8-mer” value is -0.176 ± 0.0097.
